Reference: PubChem BioAssay AID686979 (National Center for Advancing Translational Sciences (NCATS), 2013)
About 50,000 (12%) of roughly 420,000 compounds were called active. Inconclusive results, whose numbers are uncertain, are shown with a selection of clear calls. Calls follow the shape of the dose curve; as a rule, active = well fitted inhibition curve with a large enough effect; inconclusive = small, poorly fitted or top-dose-only effect; inactive = flat fitted curve, though single readings scatter. Potencies of inconclusive entries are left out as doubtful fits. Where a structure was tested more than once in an assay, its records may differ in their call.

Assay: qHTS for Inhibitors of human tyrosyl-DNA phosphodiesterase 1 (TDP1): qHTS in cells in presence of CPT; also: nearly all actives have a fitted effect of over 55% in size
Details: chicken DT40 Tdp1-/-;hTDP1 cells + 20 nM CPT, ATP luminescence, 48 h; activity change, negative = growth inhibition: at 46.2 µM (top of the series)
Summary of the method: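 Cell growth measured by CellTiter-Glo luminescence after a minimum 48 h, 37 C compound exposure with 20 nM CPT in Tdp1-knockout DT40 cells stably expressing hTDP1, seeded 400/well; qHTS titration format.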
% is scaled to controls: 0 for no effect and ±100 for the full control effect; potency is read from the fitted curve at half-maximal effect; tags tell the direction and shape of the fitted curve.

**Q.** With `COc1cccc(N2CCN(C(=O)C3CCN(S(=O)(=O)c4cccs4)CC3)CC2)c1` as the compound, how does the Potency read?
**A.** inconclusive [inhibitor, single point]

**Q.** Which Potency does the source give for `CC1(Cc2ccc(OC(F)(F)F)cc2)C(=O)Nc2ccc(S(=O)(=O)NC3CCCCC3)cc21` (stereo unspecified) here?
**A.** inconclusive [inhibitor, single point]

**Q.** For `S=C(NCc1ccccn1)Nc1ccccc1Cl`, which Potency is on record?
**A.** inconclusive [inhibitor, single point]

**Q.** With `Cc1cc(-n2c(C)nc3ccccc3c2=O)ccc1NC(=O)c1ccc(C)c([N+](=O)[O-])c1` as the compound, how does the Potency read?
**A.** active: 7.31 µM

**Q.** For `CCCn1c(N)c(C(=O)COc2ccc(Br)cc2F)c(=O)n(C)c1=O`, which Potency is on record?
**A.** active: 14.6 µM

**Q.** For `Cc1ccc(C(=O)/C=C/c2cn(CC(O)CN3CCc4ccccc43)c3ccccc23)cc1` (stereo unspecified), which Potency is on record?
**A.** inconclusive [inhibitor, single point]

**Q.** For `CCCn1cnc2cc(NCc3ccccn3)ccc21`, which Potency is on record?
**A.** inconclusive [inhibitor, single point]

**Q.** For `CN(C)CC(=O)c1c[nH]c2ccccc12`, which Potency is on record?
**A.** inconclusive [inhibitor, full curve, poor fit]

**Q.** For `C[C@@H]1C[C@H]2[C@@H]3CCC4=CC(=O)C=C[C@]4(C)[C@@]3(F)C(O)C[C@]2(C)[C@@]1(O)C(=O)CO` (stereo partly specified), which “activity change, negative = growth inhibition” value is on record?
**A.** inactive: 5.23%

**Q.** With `COc1cc(C(O)c2nc(-c3cc4ccccc4o3)cs2)ccc1F` (stereo unspecified) as the compound, how does the Potency read?
**A.** active: 20.6 µM

**Q.** For `O=C(C[C@H]1C[C@H](C(=O)N2CCOCC2)[C@@]2(CCC3CCCC3)c3[nH]c4cc(-c5ccco5)ccc4c3CCN2C1=O)NCCCn1ccnc1`, which Potency is on record?
**A.** inconclusive [inhibitor, single point]

**Q.** With `CCN(CC)S(=O)(=O)c1cccc(NC(=O)c2cncc(Br)c2)c1` as the compound, how does the activity change, negative = growth inhibition read?
**A.** inconclusive: -30.1% [inhibitor]

**Q.** For `Cc1ccc(CN2CCC(CNC(=O)c3cc4ccc5cccnc5c4[nH]3)CC2)cc1`, which Potency is on record?
**A.** active: 16.4 µM

**Q.** With `NNC(=O)c1cc(-c2cccs2)nc2ccccc12` as the compound, how does the Potency read?
**A.** inconclusive [inhibitor, single point]

**Q.** Which Potency does the source give for `CCOc1cc2sc(N3CCC(C(=O)Nc4ccccc4Cl)CC3)nc2cc1Br` here?
**A.** inconclusive [inhibitor, single point]

**Q.** For `CC(C)Sc1nc2c(c(=O)[nH]c(=O)n2C)n1Cc1ccc(Cl)cc1`, which Potency is on record?
**A.** inconclusive [inhibitor, single point]

**Q.** For `CC1(C)[C@@H](O)CC[C@]2(C)[C@H]3C(=O)C=C4[C@@H]5C[C@@](C)(C(=O)O)CC[C@]5(C)CC[C@@]4(C)[C@]3(C)CC[C@@H]12`, which Potency is on record?
**A.** active: 7.5 µM

**Q.** Which Potency does the source give for `COc1cccc(-n2nc(-c3ccnn3-c3cccc(Cl)c3)c(=O)n(C)c2=O)c1` here?
**A.** active: 23.1 µM

**Q.** Which “activity change, negative = growth inhibition” value does the source give for `O=C(COC(=O)c1cc(=O)[nH]c(=O)[nH]1)Nc1cccc(Cl)c1` here?
**A.** inactive: -1.09%

**Q.** Which Potency does the source give for `CCCn1c(=NC(=O)c2ccco2)c(C(=O)OCC)cc2c(=O)n3ccccc3nc21` here?
**A.** inconclusive [inhibitor, single point]

**Q.** For `Cn1c(=O)c2c(-c3ccccc3)n(-c3ccccc3F)cc2n(C)c1=O`, which Potency is on record?
**A.** active: 14.6 µM

**Q.** Which Potency does the source give for `CC(C)[C@H](NC(=O)c1ccc(Cl)cc1)C(=O)OCC(=O)N1CCN(c2ccccc2)CC1` here?
**A.** inconclusive [inhibitor, single point]

**Q.** For `COc1ccc(NC(=O)C(c2ccc(OC)cc2)N(C)C(=O)c2cnccn2)cc1` (stereo unspecified), which activity change, negative = growth inhibition is on record?
**A.** inconclusive: -32.2% [inhibitor]

**Q.** With `O=C(C1CCCN1S(=O)(=O)c1cccc2cccnc12)N1CCc2ccccc21` (stereo unspecified) as the compound, how does the Potency read?
**A.** inconclusive [inhibitor, single point]

**Q.** With `CCN(CC)C(=O)COc1ccc(-c2nnc(N3CCCCC3)c3ccccc23)cc1` as the compound, how does the “activity change, negative = growth inhibition” value read?
**A.** inactive: -25.8%

**Q.** With `Cc1onc(-c2c(F)cccc2Cl)c1C(=O)Nc1nc2ccccc2[nH]1` as the compound, how does the Potency read?
**A.** inconclusive [inhibitor, single point]

**Q.** Which Potency does the source give for `Cc1ccc(Nc2nnc(SCC(=O)Nc3cccnc3Cl)s2)cc1C` here?
**A.** inconclusive [inhibitor, single point]

**Q.** For `Cc1ccc(-c2nn(CC(=O)NC3CCCC3)c3c2cnc2ccc(F)cc23)cc1C`, which Potency is on record?
**A.** inconclusive [inhibitor, full curve, poor fit]

**Q.** With `N#Cc1ccc(Oc2ccc(-c3nc4ccccc4nc3-c3ccccc3)cc2)cc1C#N` as the compound, how does the Potency read?
**A.** active: 9.2 µM

**Q.** With `Cc1cc(Cl)cc(C)c1OCC(=O)NC1CCCCCC1` as the compound, how does the Potency read?
**A.** inconclusive [inhibitor, single point]

**Q.** For `O=C(CN(Cc1ccccc1F)S(=O)(=O)c1ccc(Cl)cc1)NCCC1=CCCCC1`, which Potency is on record?
**A.** inconclusive [inhibitor, single point]

**Q.** Which Potency does the source give for `Cc1cc(C(=O)CSc2n[nH]c(N)n2)c(C)n1-c1cccc(F)c1` here?
**A.** inconclusive [inhibitor, partial curve]

**Q.** For `O=S(=O)(NCc1ccc(C(F)(F)F)cc1)c1ccc(-n2cnnn2)cc1`, which Potency is on record?
**A.** inconclusive [inhibitor, single point]

**Q.** Which Potency does the source give for `CC(=O)c1ccc(N2CCN(C(=O)c3nn(C)c4c3CS(=O)(=O)c3ccccc3-4)CC2)cc1` here?
**A.** inconclusive [inhibitor, single point]

**Q.** With `O=C(c1ccc(COc2c(F)c(F)c(F)c(F)c2F)o1)N1CCN(Cc2ccc3c(c2)OCO3)CC1` as the compound, how does the Potency read?
**A.** inconclusive [inhibitor, single point]

**Q.** Which Potency does the source give for `COc1ccccc1NC(=O)c1ccccc1S(=O)(=O)c1ccccc1[N+](=O)[O-]` here?
**A.** inconclusive [inhibitor, single point]

**Q.** For `CN(Cc1ccccc1)C(=O)c1ccc(S(=O)(=O)N(C)c2ccccc2)cc1`, which Potency is on record?
**A.** inconclusive [inhibitor, single point]

**Q.** With `CCCCNC(=O)C1c2ccccc2OCC(=O)N1CCc1c[nH]c2ccccc12` (stereo unspecified) as the compound, how does the “activity change, negative = growth inhibition” value read?
**A.** inactive: 7.12%

**Q.** With `CCNC(=O)C12CCC(C)(c3nc4cc(C)c(C)cc4nc31)C2(C)C` (stereo unspecified) as the compound, how does the Potency read?
**A.** inconclusive [inhibitor, single point]

**Q.** Which “activity change, negative = growth inhibition” value does the source give for `COc1ccc(NC(=O)CCN2CCN(CCO)CC2)c(OC)c1` here?
**A.** inactive: -10.3%

**Q.** With `COc1ccc(NC(=S)N/N=C/c2ccc(F)c(F)c2)cc1` as the compound, how does the Potency read?
**A.** inconclusive [inhibitor, single point]
